Out of some 39,000 compounds screened, about 220 (0.56%) showed activity. This is one part of the list.
Tested on: Escherichia coli K-12 BW25113
Assay: relative growth (OD600 normalised to plate interquartile mean) (fraction); higher = less growth inhibition, active = 0.2 or less
Conditions: 50 µM; LB; incubation time: overnight (16-24 h)
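Also: static incubation at 37 °C against the wild-type strain, values averaged over two biological replicates.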

SMILES | relative growth
C[C@@H]1CCCCO[C@H](CN(C)Cc2ccc(C(=O)O)cc2)[C@H](C)CN([C@@H](C)CO)C(=O)c2cc(NC(=O)NC3CCCCC3)ccc2O1 | inactive: 0.986
C[C@H]1CN([C@@H](C)CO)C(=O)Cc2cc(NC(=O)CCCCCC(=O)Nc3ccccc3N)ccc2O[C@H]1CN(C)S(C)(=O)=O | inactive: 0.974
C[C@H](CO)N1C[C@H](C)[C@@H](CN(C)Cc2ccncc2)Oc2ccc(NS(=O)(=O)c3cn(C)cn3)cc2CC1=O | inactive: 0.954
COc1ccc(S(=O)(=O)Nc2ccc3c(c2)CC(=O)N([C@@H](C)CO)C[C@@H](C)[C@@H](CN(C)C)O3)cc1 | inactive: 1.02
CC(C)(C)c1ccc(OC[C@@H](O)CN)cc1 | inactive: 1.04
Cn1cnc(S(=O)(=O)N2C[C@@H](O)COC[C@@H]3O[C@H](CC(=O)NCc4cc(F)cc(F)c4)CC[C@H]32)c1 | inactive: 0.987
COc1ccc2c3c(n(c2c1)C)[C@H](CO)N(C[C@]13CN(CC2CCOCC2)C1)C(=O)c1ccc(cc1)F | inactive: 1
C[C@@H]1CCCCO[C@@H](CN(C)Cc2ccccc2)[C@@H](C)CN([C@@H](C)CO)C(=O)c2cc(NC(=O)Nc3ccccc3)ccc2O1 | inactive: 1.01
CCCC(=O)Nc1ccc2c(c1)C(=O)N(C)[C@H]1CC[C@@H](CC(=O)NCCN3CCCCC3)O[C@H]1CO2 | inactive: 0.987
C[C@H](CO)N1C[C@H](C)[C@H](CN(C)S(=O)(=O)c2ccc(F)cc2)Oc2ccc(NS(=O)(=O)c3cccs3)cc2C1=O | inactive: 0.971
C[C@@H]1CCCCO[C@@H](CN(C)C(=O)Nc2ccccc2)[C@@H](C)CN([C@H](C)CO)C(=O)c2cc(NS(=O)(=O)c3ccc(F)cc3)ccc2O1 | inactive: 0.999
COC(=O)C[C@H]1CC[C@@H](N)[C@H](CO)O1 | inactive: 0.999
O=C(C[C@@H]1C[C@H]2c3cc(NC(=O)Cc4ccncc4)ccc3O[C@H]2[C@@H](CO)O1)NCc1ccc2c(c1)OCO2 | inactive: 1.02
Cc1noc(C)c1NC(=O)Nc1cccc2c1O[C@H](CN(C)S(=O)(=O)c1cn(C)cn1)[C@H](C)CN([C@H](C)CO)C2=O | inactive: 1.01
COCCC(=O)N1C[C@H]2CN(c3cnn(C)c3)C(=O)[C@@H]2C1 | inactive: 1.04
COc1ccc(NC(=O)N(C)C[C@H]2OCCCC[C@@H](C)Oc3ccc(NC(=O)Nc4ccc(F)cc4)cc3C(=O)N([C@H](C)CO)C[C@@H]2C)cc1 | inactive: 1.03
CC(=O)N[C@@H](Cc1ccccc1)C(=O)NN | inactive: 0.987

Reference: the supplement of paper PMC9446081
